Here are results for 32 variants from the supplement of paper PMC12217912.

Some of the results follow. Sequences were assembled here from the parent chain. Inactive controls read about 0.05.

B1: TEV protease; numbered along this chain (parent)
chain: MGESLFKGPRDYNPISSSICHLTNESDGHTTSLYGIGFGPFIITNKHLFRRNNGTLVVQSLHGVFKVKDTTTLQQHLVDGRDMIIIRMPKDFPPFPQKLKFREPQREERICLVTTNFQTKSMSSMVSDTSCTFPSGDGIFWKHWIQTKDGQCGSPLVSTRDGFIVGIHSASNFTNTNNYFTSVPKNFMELLTNQEAQQWVSGWRLNADSVLWGGHKVFMVKPEEPFQPVKEATQL
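Further: Bxb1 expression induced with 0.2% (w/v) L-rhamnose at OD600 near 0.5, cultures sampled hourly, flipped fraction per protease–substrate barcode pair counted by paired-end Illumina sequencing.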

In this assay the parent is B1. The assay can be described thus: raw area under fraction-flipped curve 0-4 h after induction (AUC4h, not background-subtracted), DNA-recorder readout of cleavage of the substrate (dimensionless); higher = more cleavage of the substrate by the protease variant. To be noted: temperature: 34 °C; time window: 0-4 h after rhamnose induction.
Regarding N116V, the “area with substrate ENLFFQS” value was determined as 0.0836, the “area with substrate ENLGFQS” value worked out at 0.0617, the “area with substrate ENLHFQS” value came to 0.0827 and the “area with substrate ENLKFQS” value is 0.0644. For the same variant, the “area with substrate ENLMFQS” value was 0.0628, the “area with substrate ENLNFQS” value was found to be 0.0618, the “area with substrate ENLQFQS” value was 0.0667 and the “area with substrate ENLRFQS” value is 0.0547.

Turning to N116T, the “area with substrate ENLHFQS” value worked out at 0.0559, the “area with substrate ENLIFQS” value was 0.0919 and the “area with substrate ENLNFQS” value came out at 0.0749.

As for N172H, the “area with substrate ENLFFQS” value worked out at 0.0596, the “area with substrate ENLHFQS” value came to 0.0506, the “area with substrate ENLKFQS” value came to 0.0645 and the “area with substrate ENLLFQS” value was 0.0481. The “area with substrate ENLNFQS” value was 0.0521 and the “area with substrate ENLSFQS” value was 0.06.

Take N172R: the “area with substrate ENLDFQS” value was 0.0639, the “area with substrate ENLFFQS” value amounted to 0.0446, the “area with substrate ENLNFQS” value worked out at 0.0568 and the “area with substrate ENLPFQS” value came out at 0.0405. For the same variant, the “area with substrate ENLRFQS” value is 0.0648.

Regarding N172L, the “area with substrate ENLFFQS” value turned out to be 0.055.

As for N172A, the “area with substrate ENLEFQS” value was 0.0584 and the “area with substrate ENLKFQS” value worked out at 0.0574.

N172V: the “area with substrate ENLFFQS” value was found to be 0.0477, the “area with substrate ENLHFQS” value came out at 0.0582, the “area with substrate ENLRFQS” value was determined as 0.046 and the “area with substrate ENLSFQS” value is 0.0472. For the same variant, the “area with substrate ENLVFQS” value was 0.0461.

Regarding Q118L, the “area with substrate ENLFFQS” value is 0.0833, the “area with substrate ENLLFQS” value came out at 0.0598, the “area with substrate ENLMFQS” value was determined as 0.08 and the “area with substrate ENLNFQS” value turned out to be 0.0688. Moreover, the “area with substrate ENLVFQS” value amounted to 0.215 and the “area with substrate ENLWFQS” value was determined as 0.0807.

On to S209A, for which the “area with substrate ENLGFQS” value worked out at 0.0905, the “area with substrate ENLHFQS” value was 0.073, the “area with substrate ENLKFQS” value was found to be 0.0699 and the “area with substrate ENLNFQS” value stood at 0.0623. Besides, the “area with substrate ENLRFQS” value worked out at 0.0858.

In the case of V165M, the “area with substrate ENLFFQS” value amounted to 0.0602, the “area with substrate ENLGFQS” value amounted to 0.0371, the “area with substrate ENLKFQS” value turned out to be 0.0613 and the “area with substrate ENLMFQS” value came out at 0.038. Also, the “area with substrate ENLNFQS” value was 0.0362 and the “area with substrate ENLPFQS” value was 0.0752.

P93L: the “area with substrate ENLFFQS” value was 0.095, the “area with substrate ENLKFQS” value turned out to be 0.0719, the “area with substrate ENLLFQS” value was 0.0904 and the “area with substrate ENLNFQS” value amounted to 0.0749. The “area with substrate ENLSFQS” value was 0.059.

Take G214F: the “area with substrate ENLEFQS” value came to 0.0635 and the “area with substrate ENLMFQS” value came out at 0.0684.

For G214W, the “area with substrate ENLHFQS” value came out at 0.0749, the “area with substrate ENLKFQS” value turned out to be 0.0661 and the “area with substrate ENLPFQS” value came out at 0.0489.

Take T147V: the “area with substrate ENLDFQS” value worked out at 0.0622, the “area with substrate ENLEFQS” value amounted to 0.0628, the “area with substrate ENLFFQS” value was 0.073 and the “area with substrate ENLIFQS” value came to 0.065. For the same variant, the “area with substrate ENLKFQS” value worked out at 0.0571, the “area with substrate ENLMFQS” value was determined as 0.0646, the “area with substrate ENLQFQS” value was found to be 0.06 and the “area with substrate ENLSFQS” value stood at 0.0737.

For the variant C131P, the “area with substrate ENLFFQS” value worked out at 0.0809, the “area with substrate ENLIFQS” value amounted to 0.0778, the “area with substrate ENLKFQS” value worked out at 0.0982 and the “area with substrate ENLNFQS” value was determined as 0.0749. The “area with substrate ENLTFQS” value was determined as 0.0579.

Turning to C131H, the “area with substrate ENLEFQS” value is 0.0593, the “area with substrate ENLFFQS” value was determined as 0.0678 and the “area with substrate ENLWFQS” value is 0.0591.

As to C131Q, the “area with substrate ENLIFQS” value was 0.0672 and the “area with substrate ENLMFQS” value was 0.074.

On to C131K, for which the “area with substrate ENLDFQS” value was determined as 0.061, the “area with substrate ENLFFQS” value worked out at 0.0739, the “area with substrate ENLHFQS” value turned out to be 0.0784 and the “area with substrate ENLNFQS” value was determined as 0.0694. Besides, the “area with substrate ENLPFQS” value came out at 0.0405 and the “area with substrate ENLRFQS” value turned out to be 0.0885.

On to C131F, for which the “area with substrate ENLHFQS” value amounted to 0.0863.

On to G213H, for which the “area with substrate ENLDFQS” value was 0.0638, the “area with substrate ENLFFQS” value was determined as 0.0483, the “area with substrate ENLHFQS” value worked out at 0.0661 and the “area with substrate ENLNFQS” value was determined as 0.0604. For the same variant, the “area with substrate ENLSFQS” value worked out at 0.0689 and the “area with substrate ENLWFQS” value came out at 0.0522.

Consider F95N, for which the “area with substrate ENLIFQS” value stood at 0.0914, the “area with substrate ENLKFQS” value is 0.0613, the “area with substrate ENLNFQS” value was 0.0614 and the “area with substrate ENLPFQS” value is 0.055. Also, the “area with substrate ENLRFQS” value stood at 0.0776 and the “area with substrate ENLSFQS” value amounted to 0.0654.

Turning to K66Q, the “area with substrate ENLDFQS” value turned out to be 0.0742, the “area with substrate ENLFFQS” value amounted to 0.129, the “area with substrate ENLLFQS” value was 0.0484 and the “area with substrate ENLMFQS” value was 0.0791. Moreover, the “area with substrate ENLPFQS” value is 0.0623, the “area with substrate ENLQFQS” value amounted to 0.0453, the “area with substrate ENLRFQS” value was determined as 0.0572 and the “area with substrate ENLSFQS” value turned out to be 0.0711.

On to G166E, for which the “area with substrate ENLFFQS” value is 0.0408, the “area with substrate ENLKFQS” value came out at 0.0565 and the “area with substrate ENLRFQS” value amounted to 0.0438.

Take F92G: the “area with substrate ENLEFQS” value was 0.0665, the “area with substrate ENLFFQS” value turned out to be 0.0564, the “area with substrate ENLKFQS” value stood at 0.0834 and the “area with substrate ENLSFQS” value was found to be 0.0486. The “area with substrate ENLVFQS” value worked out at 0.0589.

For V200D, the “area with substrate ENLFFQS” value is 0.0738, the “area with substrate ENLGFQS” value amounted to 0.0547, the “area with substrate ENLHFQS” value was 0.0659 and the “area with substrate ENLSFQS” value amounted to 0.0807. The “area with substrate ENLWFQS” value was found to be 0.0738.

Turning to D27E, the “area with substrate ENLDFQS” value came out at 0.0767, the “area with substrate ENLHFQS” value was 0.066, the “area with substrate ENLKFQS” value turned out to be 0.055 and the “area with substrate ENLLFQS” value worked out at 0.0825. The “area with substrate ENLPFQS” value was found to be 0.122, the “area with substrate ENLRFQS” value came to 0.0862 and the “area with substrate ENLTFQS” value came out at 0.0712.

On to N186T, for which the “area with substrate ENLFFQS” value was 0.101, the “area with substrate ENLIFQS” value was 0.0797, the “area with substrate ENLRFQS” value came out at 0.0791 and the “area with substrate ENLSFQS” value stood at 0.0731.

In the case of N186F, the “area with substrate ENLIFQS” value turned out to be 0.0711, the “area with substrate ENLKFQS” value is 0.0629, the “area with substrate ENLNFQS” value amounted to 0.0616 and the “area with substrate ENLRFQS” value is 0.0875. Moreover, the “area with substrate ENLSFQS” value was 0.0676.

Turning to N186H, the “area with substrate ENLFFQS” value stood at 0.0838, the “area with substrate ENLHFQS” value is 0.0407, the “area with substrate ENLIFQS” value was determined as 0.0508 and the “area with substrate ENLQFQS” value amounted to 0.078.

In the case of S60G, the “area with substrate ENLFFQS” value was found to be 0.0403, the “area with substrate ENLNFQS” value was determined as 0.0615 and the “area with substrate ENLSFQS” value was 0.0371.

Take G162V: the “area with substrate ENLEFQS” value turned out to be 0.0627, the “area with substrate ENLFFQS” value turned out to be 0.0713, the “area with substrate ENLIFQS” value came to 0.087 and the “area with substrate ENLQFQS” value was 0.059. Moreover, the “area with substrate ENLRFQS” value is 0.0582, the “area with substrate ENLSFQS” value is 0.0655 and the “area with substrate ENLWFQS” value came out at 0.046.

On to T181I, for which the “area with substrate ENLHFQS” value was 0.0703, the “area with substrate ENLKFQS” value turned out to be 0.0428, the “area with substrate ENLLFQS” value worked out at 0.053 and the “area with substrate ENLNFQS” value was determined as 0.0562.
